From PubChem BioAssay AID1645887 (National Center for Advancing Translational Sciences (NCATS), 2021)
Where “and” joins values, the source holds several entries; their conditions need not be identical. Identical values can stand only once. The whole screen tested about 16,000 compounds, of which about 40 (0.2%) were called active. Inconclusive results (about 1%) are left out. The call rests on the fitted dose curve; in most records, active means well fitted activation curve with a large enough effect; inconclusive means small, poorly fitted or top-dose-only effect, or another doubt; inactive means no such curve, though single readings can be large or run the other way. The list shows a part of the results.

Target: Rap guanine nucleotide exchange factor 4 (Homo sapiens) (UniProt Q8WZA2)
Sequence of UniProt Q8WZA2 (Q8WZA2 whole entry, looked up): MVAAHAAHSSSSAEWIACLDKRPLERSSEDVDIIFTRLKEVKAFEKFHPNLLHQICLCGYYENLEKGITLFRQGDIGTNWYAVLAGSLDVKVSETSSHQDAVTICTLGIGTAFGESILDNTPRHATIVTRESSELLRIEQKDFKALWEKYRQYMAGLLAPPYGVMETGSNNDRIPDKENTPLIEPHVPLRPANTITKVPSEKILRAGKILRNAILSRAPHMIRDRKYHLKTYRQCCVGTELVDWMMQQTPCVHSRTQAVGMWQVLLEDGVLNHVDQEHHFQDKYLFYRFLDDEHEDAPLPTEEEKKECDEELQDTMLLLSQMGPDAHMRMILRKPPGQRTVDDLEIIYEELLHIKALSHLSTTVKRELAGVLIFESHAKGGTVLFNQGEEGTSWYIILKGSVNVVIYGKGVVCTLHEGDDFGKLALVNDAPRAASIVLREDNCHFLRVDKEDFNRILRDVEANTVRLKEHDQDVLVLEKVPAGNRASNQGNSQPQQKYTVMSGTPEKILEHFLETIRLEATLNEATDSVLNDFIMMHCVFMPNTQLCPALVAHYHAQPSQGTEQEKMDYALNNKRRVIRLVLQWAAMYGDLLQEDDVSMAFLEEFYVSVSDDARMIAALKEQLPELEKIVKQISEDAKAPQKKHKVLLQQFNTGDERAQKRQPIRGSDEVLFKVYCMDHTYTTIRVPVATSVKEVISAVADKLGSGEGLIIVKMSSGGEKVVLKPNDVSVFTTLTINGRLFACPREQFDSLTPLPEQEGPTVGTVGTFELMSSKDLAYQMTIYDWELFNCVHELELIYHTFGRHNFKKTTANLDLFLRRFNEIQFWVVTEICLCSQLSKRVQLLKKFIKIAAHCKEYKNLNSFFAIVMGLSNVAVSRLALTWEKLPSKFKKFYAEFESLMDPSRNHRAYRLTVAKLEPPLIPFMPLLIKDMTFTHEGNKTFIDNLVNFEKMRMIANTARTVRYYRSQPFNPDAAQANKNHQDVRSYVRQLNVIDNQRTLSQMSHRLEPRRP
Test: Validation qHTS for agonist of cAMP-regulated guanine nucleotide exchange factor 4 (EPAC2);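 further: exchange makes BODIPY-GDP fluorescence drop when released from Rap1B; series mostly up to about 150 µM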
Settings: EPAC2 Rap1B BODIPY-GDP exchange, fluorescence; activation: stronger effect = higher value
How it was run: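 Signal normalized against 6.5 mM cAMP as agonist control. Mix of EPAC2 (100 nM), RAP1B-BODIPY-GDP (250 nM) and GDP (50 uM) was read kinetically at 480/540 nm, every 5 min over 30 min, after 5 min room-temperature incubation with compound.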
On the % scale 0 is the no-effect control and ±100 the full control effect.

activation, inactive:
O=S(=O)(NCc1ccc(F)cc1)c1ccccc1Br -27.2%
CO[C@H]1C[C@@H]2CC[C@@H](C)[C@@](O)(O2)C(=O)C(=O)N2CCCC[C@H]2C(=O)O[C@H]([C@H](C)C[C@@H]2CC[C@@H](O)[C@H](OC)C2)CC(=O)[C@H](C)C=C(C)[C@@H](O)[C@@H](OC)C(=O)[C@H](C)C[C@H](C)/C=C/C=CC=C1C -42.7% and -40.5%
CN(Cc1ccco1)c1ncncc1-c1ccccc1C(F)(F)F -1.28%
CO/N=C(\C(=O)N[C@@H]1C(=O)N2C(C(=O)O)=C(CSc3cnns3)CS[C@H]12)c1csc(N)n1 -30%
CC(C)CN(C[C@@H](O)[C@H](Cc1ccccc1)NC(=O)O[C@H]1CO[C@H]2OCC[C@H]21)S(=O)(=O)c1ccc(N)cc1 -6.34%
COc1cccc(-c2nc3cc4c(cc3cc2CN(C(=O)c2cc(C)nn2C)C2CC2)CCC4)c1OC -15.8%
CN(C)C(=O)c1ccc(-c2ccc3ncnc(N(C)C)c3c2)cc1 -8.88%
CCCCCc1ccc(-c2cn(Cc3ccc([N+](=O)[O-])cc3)nn2)cc1 -1.3%
COCCn1c(=O)c(CCc2ccccc2)nc2cnc(N3CCN(C)CC3)nc21 -2.75%
C=CC1=C(C)C2=NC1=CC1=NC(=CC3=NC(=CC4=NC(=C2)C(C)=C4CCC(=O)O)C(CCC(=O)O)=C3C)C(C=C)=C1C.[Zn] 0.597%
Cn1c(=O)c(-c2ccccc2)nc2cnc(Nc3ccccc3)nc21 -10.3%
O=C1CCN(CCc2ccccc2)CCN1CCO -8.5%
CC1CC2(C)Oc3ccccc3C3OCC1(COC(=O)Nc1ccccc1)C(C)C32 (configuration not stated) 10.1%
COc1cc(/C=C/C(=O)CC(=O)/C=C/c2ccc(O)c(OC)c2)ccc1O 11.6% and -19.4%
Cc1cccc(CNc2cc(-c3cccc(C#N)c3)ncn2)c1 -7.29%
COc1ccccc1-c1ccnc(-n2ncc(C(=O)NCc3cccc(C)n3)c2C)n1 -6.88%
COc1cc(CN2CCC3(CCC(CNC(=O)c4ccccc4)O3)CC2)cc(OC)c1 (configuration not stated) -4.06%
COc1cc(C)c(CN2C[C@H](Sc3ccccn3)C[C@H]2C(=O)N(C)C)cc1C -7.63%
CCOc1ccc(NC(=S)Nc2ccc(OCC)cc2)cc1 11.6%
CC(=O)OC1CC(OC(C)=O)[C@]2(C)C(CC(O)[C@]3(C)C2CC[C@@]2(C)C(c4ccoc4)OC(=O)C4O[C@]432)C1(C)C (some centres not stated) -14.3%
CC(C)=CCOc1cc2oc(=O)ccc2cc1O -11.5%
Cc1cc(O)c(C)c2c1CC[C@H]1[C@H](C)C(=O)O[C@H]21 -24.3%
CC1(C)C(=O)CC[C@@]2(C)C1CC(O)[C@@]1(C)C3=CC(=O)OC(c4ccoc4)[C@]3(C)CCC21 (some centres not stated) -0.469%
O=C(O)CSCC(=O)NC1CCSC1=O (configuration not stated) 3.47%
O=C1C(SCCO)=C(SCCO)C(=O)c2ccccc21 13.8% and 13.5%
O=C(Nc1ccccc1)N1CCC2(CC1)CCN(S(=O)(=O)c1ccccc1)CC2 8.11%
COc1ccc(Oc2ncc3nc(-c4ccc(F)cc4)c(=O)n(Cc4cccs4)c3n2)cc1 2.57%
CCCCCCCC/C=C\CCCCCCCC(=O)OCC(CO)OC(=O)CCCCCCC/C=C\CCCCCCCC (configuration not stated) -3.26%
CNC(=O)Oc1ccc2c(c1)[C@]1(C)CCN(C)[C@@H]1N2C -37.2% and 9.74%
O=C1c2cccc3c2[C@H](CCC3)CN1[C@@H]1CN2CCC1CC2 5.17%
COc1cccc(Nc2ncc3nc(-c4ccc(Cl)cc4)c(=O)n(CCC#N)c3n2)c1 -56.1%
O=C(c1cc(C(F)(F)F)cc(C(F)(F)F)c1)N1CCC[C@@]2(CCN(c3ccncc3)C2)C1 -8.96%
C[C@H]1C(O)[C@@]23CCC4C5(C=[N+](CCO)C[C@]4(C)CCC5)C2C[C@@H]1C3 (some centres not stated) -23.1%
COc1ccc(CNc2ccnc(-c3cccc(NS(C)(=O)=O)c3)n2)c(OC)c1 -12.2%
COC(=O)N1CCC2(CC1)CCN(c1ccccc1)CC2 -23.9%
CCCCCCN(CCCCCC)C(=O)Cc1c(-c2ccc(Cl)cc2)[nH]c2ccc(Cl)cc12 -0.309% and -2.58%
NC(C(=O)O)c1cc(O)cc(O)c1 (configuration not stated) 6.38%
Cc1ccc(SC[C@H](Cc2ccccc2)N2CC[C@@H](NC(=O)OCc3ccccc3)CCC2=O)cc1 -33.6%
NCC[C@H](O)C(=O)N[C@@H]1C[C@H](N)[C@@H](O[C@H]2O[C@H](CN)[C@@H](O)[C@H](O)[C@H]2O)[C@H](O)[C@H]1O[C@H]1O[C@H](CO)[C@@H](O)[C@H](N)[C@H]1O -15.2%
Cn1cc(-c2nc3cncnc3n(Cc3ccc(F)cc3)c2=O)c2ccccc21 -11.4%
O=C1C[C@@H]2c3c(cccc3CN1Cc1ccc(Br)cc1)C[C@@H](O)[C@H]2O -9.08%
CN(C)c1ccc(/C=C/c2ccnc3c(-c4ccccc4)cccc23)cc1 1.63%
N#Cc1cccc(-c2ccc3ncnc(NCCN4CCOCC4)c3c2)c1 -10.9%
CSc1ccccc1C(=O)NCc1nc(-c2cccc(NC(=O)c3ccoc3C)c2)oc1C 16%
CC(C)C1CCC(C(=O)N[C@H](Cc2ccccc2)C(=O)O)CC1 (some centres not stated) 4.95%
COc1ccc(CNc2ncncc2-c2ccccc2C(F)(F)F)c(OC)c1 -8.59%
COc1ccc(-n2c(CCNC(=O)c3ccc(-c4cccc(F)c4)cc3)nnc2SC)cc1 9.68%
CCCCN1C[C@H](Cc2ccccc2)[C@@H](CC(=O)NCc2ccc(OC)cc2)C1=O -37.7%
COc1cccc(Cn2c(=O)c(CCc3ccccc3)nc3cnc(N4CCN(C)CC4)nc32)c1 5.16%
NC(=O)COCCN1CCN(C(c2ccccc2)c2ccc(Cl)cc2)CC1 (configuration not stated) -10.9%
OC[C@H]1O[C@@H](n2cnc3c(NC4CCCC4)nc(Cl)nc32)[C@H](O)[C@@H]1O -1.85%
COc1ccc(NC(=O)N2CCCC3(CCN(C(=O)c4ccncc4)CC3)C2)cc1 -9.71%
CCCCC(=O)N(Cc1ccc(-c2ccccc2-c2nn[nH]n2)cc1)[C@@H](C(=O)O)C(C)C 6.92%
CC(C)C(=O)Nc1ccc([N+](=O)[O-])c(C(F)(F)F)c1 -14.5% and -18.6% and -46.2%
C[C@H]1O[C@@H](O[C@H]2CC[C@@]3(C)[C@H](CC[C@@H]4[C@@H]3C[C@@H](O)[C@]3(C)[C@@H](C5=CC(=O)OC5)CC[C@]43O)C2)C[C@H](O)[C@@H]1O[C@H]1C[C@H](O)[C@H](O[C@H]2C[C@H](O)[C@H](O[C@@H]3O[C@H](CO)[C@@H](O)[C@H](O)[C@H]3O)[C@@H](C)O2)[C@@H](C)O1 -10.5%
Cc1c(C(=O)N2CCCC2)sc2ncnc(NCCCN3CCOCC3)c12 5.08%
COc1ccccc1-c1nc(N(C)C)c2ccccc2n1 -20.4%
CC1=CC(=O)C2=C(C)C[C@@H]3OC(=O)[C@@H](C)[C@H]3C=C12 -13.3%
COCC(=O)Nc1cc(C(=O)NC2CCCc3ccccc32)c2c(c1)nc(-c1ccncc1)n2C (configuration not stated) -13.7%
O=S(=O)(N(Cc1ccccc1)[C@@H](CO)Cc1ccccc1)N(Cc1ccccc1)[C@@H](CO)Cc1ccccc1 -18.6%
OCC1CCCN(c2nc3cc4c(cc3cc2CNCc2cccs2)OCO4)C1 (configuration not stated) -2.67%
COc1c2c(nc3ccccc13)OC(C(C)(O)CO)C2 (configuration not stated) -16.3%
COc1ccc2c(c1)CCc1cnc(-n3ncc(C(=O)N(C)CC4CCCN(C)C4)c3C)nc1-2 (configuration not stated) 0.0605%
COc1cc2c(cc1OC)-c1c(OC)c(OC)cc3ccnc(c13)C2=O 3.55%
CC[C@@]1([C@@H]2O[C@@H]([C@H]3O[C@@](O)(CO)[C@H](C)C[C@@H]3C)C[C@@H]2C)CC[C@H]([C@]2(C)CC[C@]3(C[C@H](O)[C@@H](C)[C@@H]([C@@H](C)[C@@H](OC)[C@H](C)C(=O)O)O3)O2)O1 (stereo in doubt) -12.6% and -19.1%
CC(O)CCCCn1c(=O)c2c(ncn2C)n(C)c1=O (configuration not stated) -21.6%
CC(=O)Oc1cc2c(s1)CCN(C(C(=O)C1CC1)c1ccccc1F)C2 (configuration not stated) 4.55%
NCCCCCCCCCCNS(=O)(=O)c1cccc2c(Cl)cccc12 10.2%
CN(C)[C@@H]1C(=O)C(C(N)=O)=C(O)[C@@]2(O)C(=O)C3=C(O)c4c(O)ccc(Cl)c4[C@@H](O)[C@H]3C[C@@H]12 -14.1% and 4.77%
CCN1CCC(N[C@H]2C[C@@H](C(=O)NC)N(Cc3cccc4ccccc34)C2)CC1 1.72%
COC(=O)[C@@H](NC(=O)C1CCCN(c2nc(C)c3ccc(C)cc3n2)C1)C(C)C (some centres not stated) -10.5%
COc1c(C=O)c(O)cc2c1C(=O)c1ccccc1C2=O -4.05% and 12.3%
